# Source: the supplement of paper PMC11417369
# This is one part of the list.
# System: PfSIP2 AP2 domain 1 (GST-tagged)
# Experiment: gcPBM binding intensity (ln(normalized median fluorescence intensity)); higher = stronger DNA binding
# Summary of the method: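 GST-fused DNA-binding domains of P. falciparum, expressed in E. coli, were applied at about 25 μg on average for 1 h to an Agilent 4 × 180k array of primer-extended double-stranded 36-bp intergenic genomic probes and negative controls. Binding intensity is the highest Masliner-normalised natural-log median intensity across replicate spots of either probe orientation, measured with Alexa488 anti-GST antibody and a 488 nm scan.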
row,Sequence,gcPBM binding intensity (ln)
1,ATGAATAATTAATGATGTACTTAAAAAAAAAAATAT [XGTACX_site6346],7.1
2,AAAAAAAAAAAAAAAAAAAAAAAAAAAAAAACATAT [GTGCAC_negctrl_site580],9.02
3,ATATATTATATTGAATGTACATATATATATTATATA [XGTACX_site8445],7.33
4,GTTAATATCTTGAACAGTACTCTAAATATCTACATA [XGTACX_site5358],6.81
5,TAGCCCATATGGAATACACACTGAAAATAAAAAAAG [CACACA_site5799],7
6,TTACAATAAATTATAGTGCAATATTTTATTTAATAT,8.45
7,TGCTATAATTTATATACACACAAATATATACACATA [CACACA_site9356],7.03
8,GATAATAATAAACAACCACACACAAAAAAACAAAAA [CACACA_site9074],7.09
9,CAATGTTGTACATACACACACACAAAAAAAAAATAA [CACACA_site2407],7.2
10,TTCAAATTTCCACATACACACCTTGTAGATCTATAT [CACACA_site6270],6.91
11,ATAAAAAAACACACTCGTACACACATATTTTCTTTC [XGTACX_site6565],7.13
12,TTTATATTATTAGAAACACACATTAGATTAAAATTA [CACACA_site3286],6.84
13,TATATATATATGTGCACACCAATTGTATGTAATATA [CACACA_site3889],9.51
14,TATTTAATTACATGAACACACATTATATATTTTTAA [CACACA_site5615],6.9
15,ATATAACACATTAGTTGTACTATTTTTAATTGGTGA [XGTACX_site961],6.91
16,ACTACATAATATTAACGTACATATTATAATACTTGC [XGTACX_site954],7.33
17,TACATAATAACATGTACACACATTCTTCTATAAATG [CACACA_site4061],6.97
18,ACATAATAAAAATGACGTACAATTTTTTTTTTTCAT [XGTACX_site8340],7.01
19,CATTAAAAAGAAAGTTCACACACATATATATGACGG [CACACA_site8836],6.93
20,ATATATTATTATAACTGTACTTTTTTTGTGGTTAAT [XGTACX_site8266],7.26
21,TATGCGTATATATAAATACACACCAAATGTTAATAT [CACACA_site1713],6.98
22,CCATTTACATTGTGAAGTACTAAAAAAAAATGTAGA [XGTACX_site7882],7.12
23,ACAAGGAATATAAAAAGTACATAAAATACATAAAAA [XGTACX_site1217],7.3

row,Sequence,gcPBM binding intensity (ln)
1,TATGGATGTATTCATACATGCACACGTACATATTTA [TGCATGCA_site991],6.94
2,ATAATTTGATGGTTAACACACATATATATTATATAT [CACACA_site2449],7.07
3,ATATAAATATAAATATATATGTATAAATATAAATAT [CACACA_negctrl_site247],6.96
4,TATATATATATATATACACACAAAAAAATAAATTCT [CACACA_site98],8.98
5,ATTTATTTTAATAATTGTACATGTTATTTTATATAT [XGTACX_site2667],7.14
6,TACTTTTCATCTTCTTAACACACAAAAAAAAAAAAA [CACACA_site9290],7.5
7,ATCATTTTTAAAGGAACACACAAAAAAAGTTATAAT [CACACA_site6761],7.06
8,ATACATCAAGGACACACACACACACGCACACGCACA [CACACA_site6310],8.3
9,AAACTATTCACTATAATACATTAGAAGTGAATAAAA [TGCATGCA_negctrl_site498],6.84
10,TTATGATGGTCTTTATAAGGGCACATTAAATTCGGC [TGCATGCA_negctrl_site166],7.31
11,AGAAATTAATCGAGGTGTACGTACATCCAAATATAT [XGTACX_site7650],7.04
12,TATATATAAATATTCAGTACATAGTGCTATTAAGTG [XGTACX_site1979],7.34
13,CCATTATATCTAAGTACACACATTAATTTTTTTTTT [CACACA_site6115],7.14
14,ATATATTTAACAAGATGTACAATTTTATAAAAAATA [XGTACX_site2351],6.97
15,AATAGCAATTTGGGGTGTACACACACCTTATTTAAA [XGTACX_site2234],6.77
16,TGAAAAGGAAATTGTTGTACATATGTTTCTTCCTAA [XGTACX_site3932],6.84
17,TTTTTATAAAAAAATAGTACTCGTCTAATCTTATGT [XGTACX_site8532],7.38
18,CTGTATAAAACCAATGCATGTAAATATATTAATATA [TGCATGCA_site511],7.06
19,AAAATATATATAAATGCATGCATAATGAAATATATA [TGCATGCA_site39],6.96
20,TTTTAAAAAACAAACACACACGTAGAAAAAAAAAAA [CACACA_site4608],6.99
21,GAAATTTTATTTCGGCGGACAAATGTATACTTTCTT [XGTACX_site4238],6.77
22,GAGAAGACATTACACAGTACCCAGTAACTCTACGGA [XGTACX_site2000],6.66
23,GATTATTATGTCCATGCATGTTAATATATATTAATT [TGCATGCA_site837],7.15

row,Sequence,gcPBM binding intensity (ln)
1,AAATTGGGGCTTGTTACACACTTAGTGCGAGTTCTA [CACACA_site582],7.03
2,ACACATATGACAAATAGTACATAAATATATAAATAT [XGTACX_site7141],7.04
3,AATATTCACATTTGTTGTACATTCCTAGTTATATAA [XGTACX_site491],7.2
4,TAAATATATAATTGTAGTACTGTTTTATGTTCATAA [XGTACX_site1020],6.85
5,AAAAAATTTCAAATAACACACACTAATATATATATG [CACACA_site1426],6.89
6,TAAACAGATATATTTTGTACATATTGTATATTTTGT [XGTACX_site713],7.03
7,AAGGAAAATTTTTGGTGTACACAAAAAAATCCAAAA [XGTACX_site3596],7.05
8,ACAAAAAAGTAAAAAGTGCATGTAAAATATAAGTAT [GTGCAC_site9438],8.78
9,TTAATATATTATATTTGTACATATATATATATACAA [XGTACX_site4798],6.99
10,AAATTGTGTTCATCAGCACACACAACATCATGTAAT [CACACA_site8556],6.82
11,AATAAATCTTTTTGTTGTACTAAAAATATTATTAGC [XGTACX_site3335],6.91
12,CGAAAGAAAAAAAGCACACACAGTTTTGAGCAATGA [CACACA_site2109],6.8
13,CTTATTTCCTTTTGTAGTACCTTATAATATATATAA [XGTACX_site8873],7.51
14,TAATAATAGTACTCACATCAAAGTATTATTAAAAAT [TGCATGCA_negctrl_site496],7.04
15,TTCTATTTGTAAAATTGTACAAAATAAATAACAAAA [XGTACX_site1007],7.04
16,GCATTTCTACTAAAAATACACACGATGATACAACGA [CACACA_site1756],7.12
17,TTATATATTTTTTGCACACCAAAAAAGAGAATATTC [CACACA_site2730],7.35
18,GGGAAGTAGTAGTAATGTACTTATTTATTATGTGAC [XGTACX_site3985],7.35
19,TATAAATATAAATACACACACATATATATTATATAT [CACACA_site4496],7.07
20,TATATATATATATGTTGTACATATTTAAATGTTTAT [XGTACX_site5437],9.84
21,ATATATATATATATGTGTACATAATAACTTTGCTTA [XGTACX_site1255],9.45
22,ACCTATTTCAAACACACACACACACTAGCAAACATA [CACACA_site4695],7.67
23,TAAAAAATGTTATATACACACAGTATAAAAAAAAAT [CACACA_site7808],6.9

row,Sequence,gcPBM binding intensity (ln)
1,AATTAAATTATAAGCACACACATATATATATATATA [CACACA_site3351],9.36
2,CCACGTATAATATGTACACACACATAAATACAAAAA [CACACA_site4660],7.61
3,ATCTGTCGACAGGACAGTACACAGTAGCCAGGAAAT [XGTACX_site1994],7.05
4,TATATATATATATATATATATATGTATGTGCATTTA [TGCATGCA_negctrl_site53],9.08
5,ATATAAAAATGTAAGGGTACATAATAAATAATCAAA [XGTACX_site5217],7.07
6,ATTTAGAAAAATAAAACACACATATATATGTAAATA [CACACA_site4113],6.85
7,GGAAAAAATATATGCACACCCCCCAAAAAAAAAAAA [CACACA_site2222],9.73
8,AAAAAATATTAATATAGTACTTTATATTTATAAGTA [XGTACX_site6895],6.89
9,TTTTTGTTATTTTTAGTGCACATTTAAGGGTGTATT,10.4
10,GAAGGAAAAACAGAATGTACATAAATAAACGTATAT [XGTACX_site753],7.17
11,ACAAAATTTACAAAATGTACAAAATTTACAAAATGT [XGTACX_site6464],6.84
12,TATATCTTACTTTTTGCACACACTAATATTATTGTT [CACACA_site1640],7.42
13,AATACGGCAAACATTAAAAAATATAATAACAATAAA [CACACA_negctrl_site868],6.96
14,TAAGGATGAATCCTTTGTACATATATATATATATAT [XGTACX_site1242],9.76
15,TTTTTTTAAATATACACACACATTTATACATATATA [CACACA_site3400],7.16
16,GTTATACATTTTGATTGTACATAAACCATTTGAGCA [XGTACX_site7283],7.07
17,TGAAAAGAAAACACATGTACAAATATATAAATATAA [XGTACX_site6098],6.76
18,TATAAACATATCATATGTACATATATTTTTATAAAA [XGTACX_site8882],6.98
19,ATATATTTTTGTAGTGTGCACGTTTATATGGTGAAA,10.3
20,TTTAACGTTGAATATACACACATATATATATATATA [CACACA_site3698],9.45
